Data from PubChem BioAssay AID1963576 (National Center for Advancing Translational Sciences (NCATS), 2024).
Screen size: about 46,000 compounds; about 60 (0.1%) were called active. About 3% were inconclusive and are not listed. The call rests on the fitted dose curve; in most records, active means well fitted inhibition curve with a large enough effect; inconclusive means small, poorly fitted or top-dose-only effect; inactive means no such curve, though single readings can be large or run the other way. The list shows a part of the results.

Assay: Primary qHTS assay for Inhibitors of ovarian cancer metastasis using an organotypic tumor microenvironment (TME) model. Further: nearly all actives have a fitted effect of over 65% in size.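 On activity change, negative = inhibition: plate controls were DMSO wells for no effect and tomatine positive control wells for full effect.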
Details: SKOV3ip1-GFP adhesion/invasion on 3D omental model, fluorescence; series mostly up to 45.8 µM; activity change, negative = inhibition: at the top concentration
Method in brief: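 A 3D layer of primary human omental fibroblasts, mesothelial cells, fibronectin and collagen I, grown 48 hr, received SKOV3ip1-GFP cells in serum-free medium plus compounds at 0.36-46 umol/L. After 2 hr RT and 16 hr 37 C, fixed adherent GFP cells were counted; normalized to DMSO and tomatine.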

Activity change, negative = inhibition, inactive:
Cc1cccc(-n2c3nc(=O)[nH]c(=O)c-3cc3c(Cl)cccc32)c1C -18.5%
COc1ccc(C)cc1S(=O)(=O)N1CCN(c2cccc(Cl)c2)CC1 -20.1%
CCOc1cccc2cc(-c3nc4ccc(C(=O)O)cc4[nH]3)c(=O)oc12 -16%
CCOc1ccc(NC(=O)CSc2nnc3scc(-c4ccc(Cl)cc4)n23)cc1 0.478%
COc1cccc(NC(=O)CSc2ncc(S(=O)(=O)c3ccc(C)c(C)c3)c(=O)[nH]2)c1 6.55%
COc1ccccc1CNC(=O)c1ccc(N2CCCC2)c(NC(=O)NCCC(C)C)c1 -4.05%
Cc1cc(C)c(NC(=O)c2cc3sc(Cl)cc3n2C)c(C)c1 1.51%
O=C(COc1ccc(F)cc1)Nc1ccc2nc(SCC(=O)N3CCc4ccccc43)sc2c1 4.46%
Cc1oc2ncn(CC(C)C)c(=O)c2c1C(=O)NCCCN1CCCCC1 0.523%
CC(=O)Nc1ccc(C2Sc3ccccc3NC3=C2C(=O)c2ccccc23)cc1 (stereo not drawn) -23%
CCOC(=O)c1ccc2oc(=O)n(Cc3ccccc3)c2c1 4.28%
Cc1ccc(C)c(CN2C(=O)c3ccccc3S(=O)(=O)c3ccc(C(=O)N4CCCCCC4)cc32)c1 -1.36%
O=C(NCC(c1ccco1)S(=O)(=O)c1cccs1)c1ccc(F)cc1 (stereo not drawn) -4.96%
c1ccc2c(Cc3c[nH]c4ccccc34)c[nH]c2c1 -5.18%
CSc1cccc(NC(=O)Cn2c3ncccc3c(=O)n2-c2ccc(C)cc2)c1 0.71%
CCc1c(-c2ccccc2)nc2ccccc2c1C(=O)NCCc1ccccc1 -9.97%
CC(=O)c1ccc(N2CCN(S(=O)(=O)c3ccc(-c4cc(C(F)(F)F)on4)s3)CC2)cc1 -4.66%
Cc1ccccc1OCC(=O)OCc1cc(=O)n2nc(C3CCCCC3)sc2n1 -0.114%
Cc1ccc2c(=O)cc(C(=O)Nc3cccc(Cl)c3C)oc2c1C -4.49%
COc1cc(NC(=O)CCc2nc(-c3cccs3)no2)cc(OC)c1OC 6.75%
CCC(=O)N1CCN(c2ccc(-n3c(=O)ccc4cnc5ccc(-c6cnc7ccccc7c6)cc5c43)cc2C(F)(F)F)CC1 9.73%
COc1ccc(OCCCCn2c(-c3ccc(Cl)cc3)nc3ccccc3c2=O)cc1 -20.7%
Cc1ccc(C(C)C)c(OCC(=O)Nc2ccc(C(=O)OC3CCCCC3)cc2)c1 3.5%
CCOc1ccc(-c2nc(SCC(=O)Nc3ccc(C)c(C)c3)n3[nH]c(=O)cc3n2)cc1 1.03%
CC(C)CC(C(=O)NCc1ccc(F)cc1)N1Cc2ccccc2C1=O (stereo not drawn) -2.5%
COCCn1ccc2c(OCC(=O)Nc3cccc(OC)c3)cccc2c1=O -7.93%
Cc1cccc(NC(=O)CSc2nc(-c3ccccc3)cn2-c2ccccc2)c1C 0.082%
Cc1ccc(C)c(-n2c(CCC(=O)O)ccc2-c2ccc(Cl)cc2)c1 -6.17%
COc1ccc(Nc2ncc(C(=O)N3CCN(c4cccc(Cl)c4)CC3)c3ccccc23)cc1 5.97%
COc1cccc(CNC(=O)Cc2ccc(NC(=O)N3CCCCc4ccccc43)cc2)c1OC -5.19%
CCc1nnc(SCc2nc(-c3ccc(OC)c(OC)c3)oc2C)c2cc3sc(C)cc3n12 -1.43%
COc1ccc(NC(=O)CCS(=O)(=O)c2cccc3nonc23)cc1Cl 25.9%
CN(C(=O)c1ccc2c(c1)N(Cc1cccc(Cl)c1)C(=O)c1ccccc1S2=O)C1CCCCC1 (stereo not drawn) -9.54%
Cc1cc(C)cc(N2C(=O)CSC23C(=O)N(CC(=O)NCCc2ccccc2)c2ccccc23)c1 (stereo not drawn) -5.02%
Cc1ccc(C)c(CN2C(=O)CSc3ccc(C(=O)NCc4ccc(F)cc4)cc32)c1 9.34%
Cc1oc2ncn(C)c(=O)c2c1C(=O)NC(C)c1ccccc1 (stereo not drawn) 4.54%
COc1ccccc1NCc1cccn1-c1nnc(N2CCOCC2)s1 -2.15%
COc1ccc(N2CCN(C(CNC(=O)C(=O)NCCCN(C)C)c3cccnc3)CC2)cc1 (stereo not drawn) -10.7%
O=C(c1cccc(Br)c1)N1CCN(Cc2cc(=O)n3nc(-c4ccccc4)sc3n2)CC1 8.93%
CCC(=O)N1c2nc(-c3ccco3)nn2C2(CCCCC2)[C@@H]2CCCC[C@@H]21 4.69%
Cc1ccc(CSc2nc3cccnc3n2Cc2ccc(C(=O)NCCc3ccccc3)cc2)cc1 -3.48%
Cn1cnc(-c2cc3nccc(Oc4ccc(NC(=S)NC(=O)Cc5ccccc5)cc4F)c3s2)c1 7.56%
COc1ccc(-c2cn3nc(N4CCCC(C(=O)Nc5ccc(C)c(C)c5)C4)sc3n2)cc1 (stereo not drawn) 7.58%
Nc1nc(OCc2ccccc2)c2[nH]cnc2n1 2.45%
Cc1ccc(-n2nnnc2CNC(=O)c2ccccc2S(C)(=O)=O)cc1C 0.344%
CCc1ccc2occ(CC(=O)Nc3c(C(=O)Nc4ccc(C)cc4)oc4ccccc34)c2c1 -25%
CCCn1cc(S(=O)(=O)c2cc(C)ccc2C)c(=O)c2cc(F)c(N3CCOCC3)cc21 -3.39%
O=C(CCC(=O)OCC(=O)c1ccc(Cl)cc1)Nc1ccc(Oc2ccccc2)cc1 -21%
COc1ccc(-n2nc(C(=O)Nc3ccccc3OC)c3c4ccccc4n(C)c3c2=O)cc1Cl 6.63%
CC(C)c1cnc2c(c1SCC(=O)Nc1ccccc1C(F)(F)F)c(=O)n(C)c(=O)n2C 8.4%
Cc1ccc(CSc2nc(-c3cccs3)ccc2C#N)cc1 -9.24%
CCCNc1ncnc2onc(C)c12 1.46%
Cc1cccc(N2CCN(c3cc(C)nc4c(-c5ccc(Cl)cc5)c(C)nn34)CC2C)c1 (stereo not drawn) -9.69%
Cc1nnc(SCc2ccc(Cl)cc2)c2cc3occc3n12 -1.26%
CC(=O)N1CCCc2cc(S(=O)(=O)N(C)CC(=O)Nc3ccc(C)cc3C)ccc21 0.396%
CC1CCN(c2nn3c(=O)c(C(=O)NCc4ccc(Cl)cc4)cnc3s2)CC1 3.76%
COc1ccc(CCN(C)CCCC(C#N)(c2ccc(OC)c(OC)c2)C(C)C)cc1OC (stereo not drawn) -9.23% [at 92.2 µM]
Cc1noc(Cn2c(=O)c3ccccc3n(CC(=O)Nc3cccc(Cl)c3C)c2=O)n1 1.58%
Cc1ccc(CNc2nc3ccccc3n3c(C)nnc23)cc1 1.27%
CCCn1c2ccccc2c2cnn(CC(=O)N3CCC(C(=O)OCC)CC3)c(=O)c21 2.55%
Cc1ccccc1-n1cc(-c2ccccc2)nc1SCC(=O)Nc1ccc(F)cc1 -19.9%
COc1ccc(-n2c(=O)c3c4c(sc3n(Cc3cc(C)ccc3C)c2=O)CN(C(C)=O)CC4)c(OC)c1 0.205%
COc1cccc(C2c3c(oc4ccc(C)cc4c3=O)C(=O)N2CCCN2CCOCC2)c1OC (stereo not drawn) -4%
O=C(Nc1cccc(NC(=O)c2ccc(Br)o2)c1)c1ccccc1 3.62%
O=C(NCCN1CCN(c2ccccc2)CC1)Nc1ccccc1Br 5.15%
Cc1ccc(Sc2c(C)nn(C(=O)COc3ccc(F)cc3)c2C)cc1 -3.34%
COc1ccc(C2C(=O)N(C3CCC(C)CC3)CC(=O)N2Cc2ccccc2Cl)cc1OC (stereo not drawn) 5.3%
Cc1cc2oc(=O)c(CC(=O)O)c(C)c2c2occ(-c3ccc(F)cc3)c12 4.41%
Cc1cccc(CNC(=O)C2CCN(c3nnc(-n4c(C)ccc4C)s3)CC2)c1 3.47%
Cc1ccc(N2CC(NC(=O)c3ccc(S(=O)(=O)N4CCOCC4)cc3)CC2=O)cc1C (stereo not drawn) -11.4%
Cc1cccc(-c2noc(CN(C(=O)c3ccccc3Cl)C(C)C)n2)c1 -8.65%
O=C(c1ccc2c(c1)OCCO2)N(Cc1cccnc1)c1nc2c(F)cccc2s1 3.36%

outcome, inactive:
COc1cc2oc(=O)c(CC(=O)N3CCCCC3)c(C)c2cc1Cl
Cc1csc2nc(COc3ccccc3NC(=O)c3ccco3)cc(=O)n12
Cn1c(=O)c2c(-c3ccccc3Cl)n(-c3cc(Cl)ccc3O)cc2n(C)c1=O
Cc1cc(Nc2cccc(C)c2C)n2cnnc2n1
Cc1ccc(C(=O)CC2(O)C(=O)N(CCc3ccccc3)c3ccc(Cl)cc32)cc1 (stereo not drawn)
CCCCCOC(=O)CSc1ncnc2c1sc1nc(N3CCOCC3)c3c(c12)CCCC3
COc1ccc(CNC(=O)c2c(O)nc3cc(C)ccn3c2=O)cc1
Cc1nc(C)c(-c2ccc(SCC(=O)Nc3ccc(C)c(F)c3)nn2)s1
CCc1ccc2ncc3c(-c4ccc(F)cc4)nn(CC(=O)NCc4ccccc4)c3c2c1
CCOC(=O)C1=C(CS(=O)(=O)c2ccc(C)cc2)NC(=O)NC1c1ccc(C(C)C)cc1 (stereo not drawn)
CC(C)Oc1ccc(CNC(=O)CN2C(=O)CCc3cc(S(=O)(=O)N4CCCCC4)ccc32)cc1
Cc1ccc(CSCc2ccc(C(=O)NCCc3ccc(Cl)cc3)o2)cc1
O=C(CSC1=Nc2ccccc2N=C(c2ccc(F)cc2)C1)NCc1ccc(F)cc1
CCOc1c(Cl)cc(Cl)cc1CNCCSc1nnnn1C
CCS(=O)(=O)N1CCc2cc(C(=O)Nc3cccc(Cl)c3C)ccc21
Cc1nc2c(-c3ccccc3)c(C)nn2c(C)c1CCC(=O)NCc1ccccc1Cl
O=C(Nc1cc2c(cc1C(=O)c1ccccc1Cl)OCCO2)c1ccc(Br)cc1
FC(F)(F)c1cc(-c2ccccc2)nc2cc(-c3ccc(Br)cc3)nn12
COC(=O)c1c(SCC(=O)Nc2cc(C)cc(C)c2)[nH]c2ccccc2c1=O
Cc1cc(S(=O)(=O)Nc2ccc(-c3ccc(N4CCCCC4)nn3)cc2)c(C)cc1Cl
COc1cccc(-c2nn(C)c3sc(C(=O)NCCc4ccc(Cl)cc4)cc23)c1
Cc1ccc(C(=O)n2nc(C)c(S(=O)(=O)N3CCOCC3)c2C)cc1
CCOc1ccc(NC(=O)NCCCN2CCN(c3ccc(F)cc3)CC2)cc1
N#Cc1nc(/C=C/c2ccc(F)cc2)oc1N1CCN(c2ccccc2)CC1
COc1ccc(CCNC(=O)CCCn2c(=O)c3ccccc3n(Cc3ccc(F)cc3Cl)c2=O)cc1OC
Cn1c(C(=O)NCCc2ccccc2)cc2c(=O)n3ccccc3nc21
